Test results published in PubChem BioAssay AID1346428 (National Center for Advancing Translational Sciences (NCATS), 2018).
Several values for one entry are separate records, joined by “and”; a condition that tells them apart may be missing. Equal values may be shown once. Hit rate of the full screen: of about 48,000 compounds, about 1,200 (2.5%) were called active. About 2% were inconclusive and are not listed.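 How the source made its calls: active means activation of at least 60% and not above a set upper limit (about 1 call in 100 departs from these limits); inconclusive means activation of 40% to 60%, or above that upper limit; inactive means activation under 40%.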 Some of the results follow.

Target: Probable G-protein coupled receptor 32 (Homo sapiens) (UniProt O75388)
Chain of UniProt O75388 (O75388 whole entry, looked up): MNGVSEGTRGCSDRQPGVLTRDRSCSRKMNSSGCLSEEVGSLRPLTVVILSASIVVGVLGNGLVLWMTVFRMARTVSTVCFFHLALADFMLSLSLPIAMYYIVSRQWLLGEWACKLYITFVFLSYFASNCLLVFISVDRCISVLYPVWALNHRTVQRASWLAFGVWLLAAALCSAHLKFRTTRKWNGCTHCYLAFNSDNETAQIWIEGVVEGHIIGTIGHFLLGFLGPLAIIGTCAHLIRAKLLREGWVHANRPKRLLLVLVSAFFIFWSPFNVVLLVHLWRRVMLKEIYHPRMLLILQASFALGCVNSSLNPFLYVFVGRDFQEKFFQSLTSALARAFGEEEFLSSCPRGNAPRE
Experiment: qHTS for Agonists of Human Resolvin D1 Receptor DRV1; further: 0% is about no effect
Details: CHO-K1 GPR32 beta-arrestin PathHunter luminescence, 90 min; at 76.9 µM; active compounds read high; zero percent set by DMSO-only wells
Procedure, shortened: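 PathHunter beta-arrestin recruitment in CHO-K1 cells stably expressing ProLink-tagged GPR32. Cells were exposed to compound for 90 min at 37 C, then chemiluminescence was read after 1 h detection at ambient temperature; DMSO served as basal control.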

activation, inactive:
CCCc1cnc2c(c1SCC(=O)NCc1ccc(C)cc1)c(=O)n(C)c(=O)n2C -12.2%
CCCCCCC(=O)Nc1ccc2nc3c(=O)n(C)c(=O)n(C)c3nc2c1C -19.1%
CCCCOc1ccccc1C1CC(=O)Nc2ccc3ccccc3c21 (configuration not stated) -43.1%
CC(C)c1ccc(S(=O)(=O)N2CCN(Cc3cccc(F)c3)CC2)cc1 -22.9%
COc1ccccc1CCNC(=O)Cc1c(C)c2cc(Cl)c(O)cc2oc1=O 15.1%
COc1ccc(C)c2sc(NC(=O)c3ccc(S(=O)(=O)N(C)C)cc3)nc12 -3.35%
CCOc1ccc(CNC(=O)c2oc3c(c2C)-c2nn(Cc4cccc(Cl)c4)cc2CC3)cc1 10.3%
CC(=O)OCC(=O)[C@@]1(O)CCC2C3CCC4=CC(=O)CC[C@]4(C)C3[C@@H](O)C[C@@]21C (some centres not stated) -2.53%
CCOc1ccc(-c2cccc(NS(=O)(=O)c3ccc(C)s3)c2)nn1 -4.41%
CCOC(=O)C1CCN(C(=O)c2cc3sc(C)cc3n2C)CC1 -4.39%
CCCCN(CC)C(=O)CSc1nc2n[nH]c(C)c2c(=N)n1-c1ccc(CC)cc1 -26%
COCCCn1c(=O)c2sccc2n2c(CCCC(=O)NCc3cccc(OC)c3)nnc12 -11.2%
CN(C)CC[C@@H](c1ccc(Cl)cc1)c1ccccn1 0.197% and 6.15%
Cc1ccc(N(C)C(=O)c2sc3nc4n(c(=O)c3c2C)CCCC4)cc1C -12.1%
COc1ccc(NC(=O)CSc2ncc3c(n2)-c2ccccc2N(Cc2ccc(C)cc2)S3(=O)=O)cc1Cl 15.4%
CCOC(=O)C1CCC(CN(Cc2ccc(Cl)cc2)S(=O)(=O)c2cccc(Cl)c2C)CC1 (configuration not stated) 3.73%
CCCCOc1ccc(C(=O)Nc2ccc3c(c2)CCCN3C(=O)c2cccs2)cc1 4.88%
Cc1nc2nc(NC(=O)c3ccc(C(C)(C)C)cc3)[nH]n2c(=O)c1C 15.7%
CCOC(=O)C1CCN(C(=O)c2ccccc2NC(=O)c2nsc3ccccc23)CC1 -20.3%
CCOc1ccc(NS(=O)(=O)c2c(C)nc3sc(C)c(C)n3c2=O)cc1 12.7%
CCN1C(=O)c2ccccc2S(=O)(=O)c2ccc(C(=O)NCc3ccccc3)cc21 -11.7%
O=C(CSc1ncc(-c2ccccc2)[nH]1)Nc1ccccc1 -15.5%
NC(=O)C1CCN(S(=O)(=O)c2cc3c(cc2Cl)NC(=O)CO3)CC1 6.43%
O=C(CCC1N=C2c3ccccc3N=C(SCC(=O)Nc3cccc(Cl)c3)N2C1=O)NCc1ccco1 (configuration not stated) -23.5%
CCc1ccc(-c2nc(CS(=O)CC(=O)NCCc3ccc(C)cc3)c(C)o2)cc1 (configuration not stated) 3.22%
CCOc1ccc(N(C)C(=O)c2oc(=O)c3ccccc3c2-c2ccccc2)cc1 -27.4%
CC(C)c1cnc2c(c1SCC(=O)NC(C)(C)C)c(=O)n(C)c(=O)n2C -19.9%
Cc1ccc(N(CC(=O)N2CCN(c3cc(C)ccc3C)CC2)S(=O)(=O)c2c(C)nn(C)c2C)cc1 5.79%
O=C(O)CC1c2ccccc2CCN1C(=O)Nc1cc(Cl)ccc1Cl (configuration not stated) -20.2%
CCn1cc2c(n1)-c1c(oc(C(=O)Nc3ccc(Br)cc3F)c1C)CC2 -5.22%
CCOC(=O)c1noc2nc(C)n(CC(=O)Nc3cccc(OC)c3)c(=O)c12 -6.25%
Cc1ccc(CN(C(=O)c2ccc(OCC(C)C)cc2)c2ccccn2)o1 -8.32%
COC(=O)COc1ccc(-c2nnc(Nc3ccc(O)cc3)c3ccccc23)cc1 18.8%
Cc1cc(Cl)ccc1-n1c(CCC(=O)O)ccc1-c1cccs1 -0.77%
CCCCC1CCC(C(=O)N2CC(=O)Nc3ccc(Br)cc3C2c2ccc(F)cc2)CC1 (configuration not stated) -22.6%
Cc1cccc2c1-c1sc(C(=O)Nc3ccc(F)cc3F)cc1CO2 38.2%
CCc1c(C)c2ccc(O)c(CN3CCN(c4cc(Cl)ccc4C)CC3)c2oc1=O 20.9%
CCc1ccc(S(=O)(=O)c2nnn3c2nc(N2CCN(c4ccccc4)CC2)c2cc(Cl)ccc23)cc1 2.09%
CCC(=O)OCc1cc(=O)n2nc(C3CC3)sc2n1 1.5%
Cc1ccc(NC(=O)CN2C(=O)COc3ccc(S(=O)(=O)N4CCCCCC4)cc32)c(C)c1 -18.4%
Cc1ccc(CNC(=O)C(=O)Nc2c3c(nn2-c2ccc(F)cc2)CSC3)cc1 -16.1%
Cc1ccc(CNC(=O)c2ccc(N3CCCC3)c(NC(=O)Nc3ccc(C)cc3)c2)cc1 -15.7%
CCN(CC)C(=O)Cn1c(=O)n(CCCCCC(=O)NCc2ccc3c(c2)OCO3)c(=O)c2sccc21 -11.9%
O=c1c2sc3ccccc3c2n(Cc2cccc(F)c2)c(=O)n1CCc1ccccc1 -6.04%
CN(C(=O)Cn1nc(Cc2cccnc2)c2ccccc2c1=O)c1cccc(C(F)(F)F)c1 -30.2%
CCCc1cc(=O)oc2c3c(ccc12)OCN(Cc1ccccc1OC)C3 -4.65%
Fc1ccc(CN2CCc3nc(N4CCN(c5ccccc5F)CC4)ncc3C2)c(F)c1 -20.3%
Cc1ccc(-n2nc(C)c3c(C)c(CCC(=O)NC(C)c4ccccc4)c(C)nc32)cc1 (configuration not stated) -0.996%
Cc1ccc(NC(=O)Cn2c(=O)n(-c3ccc(C)cc3)c(=O)c3c2cnn3C)cc1 -17.1%
Cc1ccc(Cc2nc3ccccc3nc2SCC(=O)N2CCC(C)CC2)cc1 -11.4%
O=C(NCCc1ccc(Cl)cc1)C1CCN(Cc2cc3ccccc3n2Cc2ccccc2)CC1 -11.2%
COc1ccc(CCNC(=O)CCc2cn(Cc3ccccc3Cl)c3ccccc23)c(OC)c1 -21.1%
Cc1ccc(CNC(=O)c2ccc(CSc3nc4ccncc4n3Cc3ccc(C)cc3)cc2)cc1 8.32%
COc1cccc(C(=O)Nc2ccc3nc(SCC(=O)N(C)c4ccccc4)sc3c2)c1 -1.64%
CCOc1ccc(NC(=O)c2c(C)oc3nc(C)nc(N4CCCC4)c23)cc1 -21.7%
COc1ccccc1CCNC(=O)c1cccn1-c1nnc(N2CCCC2)s1 11.6%
Cc1cc(C)c(NC(=O)Cn2c(=O)oc3cc(S(=O)(=O)N4CCCCCC4)ccc32)c(C)c1 9.39%
CCOc1ccc(-c2cc(NC(=O)c3ccccc3)c(C(=O)OC)s2)cc1 6.45%
Cc1ccc(Cl)cc1N1CCN(c2ncnc3c2nc2n3CCCC2)CC1 -6.15%
CCCN(C(=O)c1cc(S(=O)(=O)N2CCc3ccccc32)cn1C)c1ccc(OCC)cc1 -22.8%
COc1ccc(CNC(=O)Cn2c(=O)oc3cc(S(=O)(=O)NCc4ccccc4)ccc32)cc1 25.3%
CCOc1ccc(C2C(C(=O)Nc3ccccc3)=C(C)Nc3nc(-c4ccccc4Cl)nn32)cc1OC (configuration not stated) -2.57%
Cc1ccccc1NC(=O)C(=O)NCC(c1ccc2c(c1)OCO2)N1CCN(c2ccccc2)CC1 (configuration not stated) -13.6%
COc1ccc(NC(=O)c2cc3c(-c4ccccc4F)nn(C)c3s2)c(OC)c1 8.24%
Cc1ccccc1NC(=O)Cn1cc(S(=O)(=O)c2ccccc2)c(=O)c2ccccc21 -3.44%
CCOc1ccc(Nc2cc(C)nc3nncn23)cc1 -12.4%
O=C(Cn1nc(C(F)(F)F)c2c1CCCC2)Nc1cccc(Cl)c1 -5.12%
CCCn1c2ccccc2c2cnn(CC(=O)NCCCN3CCCCC3CC)c(=O)c21 (configuration not stated) -19.9%
CCN1CCN(Cc2c(O)ccc3oc(C)c(C(=O)Nc4cccc(Cl)c4C)c23)CC1 -8.85%
FC(F)(F)c1cccc(N2CCN(c3ncnc4c3nc3n4CCCC3)CC2)c1 17.9%
CCC(C)NC(=O)c1cc(Sc2cccc(Cl)c2)nc2ccccc12 (configuration not stated) 20.3%
CN1CCN(CCC(=O)N2c3ccccc3Sc3ccc(C(F)(F)F)cc32)CC1 26.2%
CC1(C)S[C@@H]2[C@H](NC(=O)C(c3ccccc3)S(=O)(=O)O)C(=O)N2[C@H]1C(=O)O (some centres not stated) -13.1%
CC(C)N(Cc1ccccc1)C(=O)c1nc(-c2ccc(Cl)cc2)n2c1CCCCC2 38.7%
CCc1ccc(OCC2c3cc(OC)c(OC)cc3CCN2C(=O)c2ccc(S(=O)(=O)N3CCCC3)cc2)cc1 (configuration not stated) -7.53%
CCOC(=O)c1cnc2c(ccc3ccccc32)c1Nc1ccc(N(C)C)cc1 -32.3%
CCn1cc(C(=O)NCCCOC(C)C)c(=O)c2cc(S(=O)(=O)N3CCOCC3)ccc21 -6.87%
O=C(Cn1ccc2cc(S(=O)(=O)N3CCCCCC3)ccc21)NCc1ccccc1Cl 11%
COc1cccc(NC(=O)c2c(C)nn(-c3cccc(C)c3)c2-n2cccc2)c1 -16.1%
COc1cccc(CN2C(=O)CN(C3CCCCC3)C(=O)C2c2ccc(OC(C)C)c(OC)c2)c1 (configuration not stated) -24.6%
Cc1cc(NC(=O)N2CCC(CN3CCCCCC3)CC2)ccc1Br -19.7%
COC(=O)c1ccc2c(=O)n(CCCCCC(=O)NCCc3ccccc3)c(=O)[nH]c2c1 -18.1%
